The subject of data set [1] is MCF7. Briefly: percentage of EdU-negative (G0-arrested) nuclei per well, 72 h; reference: sequence is the full UniProt precursor, the tested protein was the secreted form or ectodomain; higher = more G0 arrest.
The subject of data set [2] is hTERT-HMEC. Briefly: percentage of EdU-negative (G0-arrested) nuclei per well, 72 h; higher = more G0 arrest. The conditions noted are these: reference: sequence is the full UniProt precursor, the tested protein was the secreted form or ectodomain.
The mark [3] stands for this setting: protein concentration 0.0225 µM.
The mark [4] stands for this setting: protein concentration 0.00885714 µM.
Setting [5] is: protein concentration 0.0885714 µM.
The mark [6] stands for this setting: protein concentration 0.0177143 µM.
Setting [7] is: protein concentration 0.177143 µM.
The mark [8] stands for this setting: protein concentration 0.01075 µM.
Where [9] appears, read: protein concentration 0.1075 µM.

± gives the standard deviation of the averaged measurements.
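Note: secreted proteins added to cultured cells, EdU pulse at the end, nuclei found by Hoechst imaging, EdU status from nuclear versus surrounding ring intensity ratio, PBS as neutral control.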

Take “MPHLMERMVGSGLLWLALVSCILTQASAVQRGYGNPIEASSYGLDLDCGAPGTPEAHVCFDPCQNYTLLDEPFRSTENSAGSQGCDKNMSGWYRFVGEGGVRMSETCVQVHRCQTDAPMWLNGTHPALGDGITNHTACAHWSGNCCFWKTEVLVKACPGGYHVYRLEGTPWCNLRYCTVPRDPSTVEDKCEKACRPEEECLALNSTWGCFCRQDLNSSDVHSLQPQLDCGPREIKVKVDKCLLGGLGLGEEVIAYLRDPNCSSILQTEERNWVSVTSPVQASACRNILERNQTHAIYKNTLSLVNDFIIRDTILNINFQCAYPLDMKVSLQAALQPIVSSLNVSVDGNGEFIVRMALFQDQNYTNPYEGDAVELSVESVLYVGAILEQGDTSRFNLVLRNCYATPTEDKADLVKYFIIRNSCSNQRDSTIHVEENGQSSESRFSVQMFMFAGHYDLVFLHCEIHLCDSLNEQCQPSCSRSQVRSEVPAIDLARVLDLGPITRRGAQSPGVMNGTPSTAGFLVAWPMVLLTVLLAWLF”: the “percentage of EdU-negative” value in data set [1] (setting [3]) amounted to 26 ± 3.7%; in data set [1] (protein concentration 0.225 µM) it was 26.29 ± 0.21%; in data set [2] (setting [3]), 4.37 ± 0.21%; in data set [2] (protein concentration 0.225 µM), 4.96 ± 0.27%.
In the case of “MLPQIPFLLLVSLNLVHGVFYAERYQMPTGIKGPLPNTKTQFFIPYTIKSKGIAVRGEQGTPGPPGPAGPRGHPGPSGPPGKPGYGSPGLQGEPGLPGPPGPSAVGKPGVPGLPGKPGERGPYGPKGDVGPAGLPGPRGPPGPPGIPGPAGISVPGKPGQQGPTGAPGPRGFPGEKGAPGVPGMNGQKGEMGYGAPGRPGERGLPGPQGPTGPSGPPGVGKRGENGVPGQPGIKGDRGFPGEMGPIGPPGPQGPPGERGPEGIGKPGAAGAPGQPGIPGTKGLPGAPGIAGPPGPPGFGKPGLPGLKGERGPAGLPGGPGAKGEQGPAGLPGKPGLTGPPGNMGPQGPKGIPGSHGLPGPKGETGPAGPAGYPGAKGERGSPGSDGKPGYPGKPGLDGPKGNPGLPGPKGDPGVGGPPGLPGPVGPAGAKGMPGHNGEAGPRGAPGIPGTRGPIGPPGIPGFPGSKGDPGSPGPPGPAGIATKGLNGPTGPPGPPGPRGHSGEPGLPGPPGPPGPPGQAVMPEGFIKAGQRPSLSGTPLVSANQGVTGMPVSAFTVILSKAYPAIGTPIPFDKILYNRQQHYDPRTGIFTCQIPGIYYFSYHVHVKGTHVWVGLYKNGTPVMYTYDEYTKGYLDQASGSAIIDLTENDQVWLQLPNAESNGLYSSEYVHSSFSGFLVAPM”, the “percentage of EdU-negative” value came to 22.7 ± 3.6% in data set [1] (setting [4]), 25.2 ± 0.46% in data set [1] (setting [5]), 5.3 ± 0.21% in data set [2] (setting [4]) and 5.39 ± 0.11% in data set [2] (setting [5]).
As for “MKSLPILLLLCVAVCSAYPLDGAARGEDTSMNLVQKYLENYYDLKKDVKQFVRRKDSGPVVKKIREMQKFLGLEVTGKLDSDTLEVMRKPRCGVPDVGHFRTFPGIPKWRKTHLTYRIVNYTPDLPKDAVDSAVEKALKVWEEVTPLTFSRLYEGEADIMISFAVREHGDFYPFDGPGNVLAHAYAPGPGINGDAHFDDDEQWTKDTTGTNLFLVAAHEIGHSLGLFHSANTEALMYPLYHSLTDLTRFRLSQDDINGIQSLYGPPPDSPETPLVPTEPVPPEPGTPANCDPALSFDAVSTLRGEILIFKDRHFWRKSLRKLEPELHLISSFWPSLPSGVDAAYEVTSKDLVFIFKGNQFWAIRGNEVRAGYPRGIHTLGFPPTVRKIDAAISDKEKNKTYFFVEDKYWRFDEKRNSMEPGFPKQIAEDFPGIDSKIDAVFEEFGFFYFFTGSSQLEFDPNAKKVTHTLKSNSWLNC”, the “percentage of EdU-negative” value in data set [1] (setting [6]) was 27.88 ± 0.12%; in data set [1] (setting [7]) it was 30.6 ± 0.81%; in data set [2] (setting [6]), 5.24 ± 0.45%; in data set [2] (setting [7]), 5.87 ± 0.59%.
With “MRVLLHLPALLASLILLQAAASTTRAQTTRTSAISDTVSQAKVQVNKAFLDSRTRLKTAMSSETPTSRQLSEYLKHAKGRTRTAIRNGQVWEESLKRLRQKASLTNVTDPSLDLTSLSLEVGCGAPAPVVRCDPCSPYRTITGDCNNRRKPALGAANRALARWLPAEYEDGLSLPFGWTPGKTRNGFPLPLAREVSNKIVGYLNEEGVLDQNRSLLFMQWGQIVDHDLDFAPDTELGSSEYSKAQCDEYCIQGDNCFPIMFPPNDPKAGTQGKCMPFFRAGFVCPTPPYKSLAREQINALTSFLDASFVYSSEPSLASRLRNLSSPLGLMAVNQEVSDHGLPYLPYDSKKPSPCEFINTTARVPCFLAGDSRASEHILLATSHTLFLREHNRLARELKRLNPQWDGEKLYQEARKILGAFVQIITFRDYLPILLGDHMQKWIPPYQGYSESVDPRISNVFTFAFRFGHLEVPSSMFRLDENYQPWGPEPELPLHTLFFNTWRMVKDGGIDPLVRGLLAKKSKLMKQNKMMTGELRNKLFQPTHRIHGFDLAAINTQRCRDHGQPGYNSWRAFCDLSQPQTLEELNTVLKSKMLAKKLLGLYGTPDNIDIWIGAIAEPLVERGRVGPLLACLLGKQFQQIRDGDRFWWENPGVFTNEQKDSLQKMSFSRLVCDNTRITKVPRDPFWANSYPYDFVDCSAIDKLDLSPWASVKN”, the “percentage of EdU-negative” value in data set [1] (setting [8]) was found to be 27.7 ± 0.48%; in data set [1] (setting [9]) it was 26.7 ± 0.36%; in data set [2] (setting [8]), 5.54 ± 0.3%; in data set [2] (setting [9]), 5.74 ± 0.31%.

The values above are taken from the supplement of paper PMC11316812.
